Laboratory results from the supplement of paper PMC3334620.
The full ranking holds about 33,000 sequences; the median of “E-score (-0.5 to 0.5)” is about -0.056, and the highest 2% start at about 0.38. Some of the results follow.

These sequences were tested against Stb4 (UniProt P50104) (assay: PBM E-score (8-mer binding enrichment) (E-score (-0.5 to 0.5)); higher = stronger / more preferred TF binding; most listed sequences are background and not binding sites). Conditions: protein concentration: 200 nM; construct: GST-DNA-binding domain.
Outline: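 Using PURExpress in vitro transcription/translation, GST-tagged yeast transcription factors were made in full-length or DNA-binding-domain form. These were applied at about 100-200 nM to double-stranded universal all-10-mer Agilent arrays, and bound protein was detected with fluorescent anti-GST. Scans were normalised with masliner before the Universal PBM Analysis Suite assigned E-scores to ungapped eight-base words pooled with their reverse complements.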

Row | Sequence | PBM E-score
1 | AGTACGTC | -0.111
2 | AATACTTG | -0.123
3 | ATAGATCG | -0.0196
4 | CACGCAGC | -0.028
5 | CTCTAAAA | -0.00728
6 | CAAGTTAG | 0.197
7 | GCAGCTAC | -0.149
8 | CCCATGCG | -0.211
9 | TATATCAA | 0.0312
10 | CGCCTAAA | -0.16
11 | AGGTCAGC | -0.0261
12 | AAGATTTA | 0.0925
13 | ATTGATCA | -0.217
14 | AGTGACCC | -0.0101
15 | CGCGATTA | -0.0152
16 | CCCAAACA | -0.274
17 | AATATCGC | 0.0955
18 | GCGTGTAC | -0.134
19 | CCGTTGTA | 0.174
20 | CCACGCGC | -0.14
21 | GAGTTTCA | -0.112
22 | GATTTCGC | 0.0447
23 | CCGTATCC | 0.256
24 | CATGTGCC | 0.0287
25 | GTCCCGTA | 0.186

Row | Sequence | PBM E-score
26 | ATCCACGG | 0.109
27 | CACACTAC | -0.108
28 | AATTTAAC | 0.0749
29 | ATAAACAA | 0.00747
30 | AGTTTGTG | 0.0542
31 | CTCATGAA | -0.0976
32 | CTCCTTCA | -0.271
33 | CAGGGGCA | -0.151
34 | AGGGATAT | -0.131
35 | GTCAAACA | -0.182
36 | CCCATGGC | -0.0456
37 | AATTTGCA | 0.0137
38 | GCGTAACA | -0.0502
39 | CGAGCGAG | 0.0797
40 | GTAAGGAA | -0.191
41 | CGTAATAC | 0.0192
42 | CCGCTGGA | 0.0487
43 | ACCCCGTG | 0.0375
44 | ATTATTCG | 0.21
45 | GTAGCATA | -0.0426
46 | TTAAAAAA | 0.00045
47 | ACTAGCAT | 0.00907
48 | ACATATTC | -0.0459
49 | CAGACGGA | 0.158
50 | AAACCTGT | -0.059

Row | Sequence | PBM E-score
51 | AAGGCATG | -0.161
52 | AGGCGTAA | -0.0799
53 | CGCATACC | 0.151
54 | CTAATAAG | -0.259
55 | ACCTGCAT | -0.0524
56 | ATCCTCAT | -0.249
57 | AGGCAGTC | -0.144
58 | GGTCCGCA | 0.00474
59 | CCTTCTCC | -0.147
60 | CCAACGTC | -0.0459
61 | AACGAAGC | -0.0698
62 | CGACACGA | 0.0172
63 | CTCAATTA | -0.147
64 | AACTTGCG | -0.0122
65 | ATCAGACA | -0.168
66 | CTAGTTAC | 0.0747
67 | GTACATTA | -0.0356
68 | AAGGATTA | -0.0254
69 | AGGTTGAC | -0.0815
70 | AAAGTTTC | -0.0988
71 | CAGGTGAG | -0.365
72 | GGCAATGA | -0.0484
73 | GAGTCGCA | -0.21
74 | CTGACTTC | 0.159
75 | GGCCCCAC | -0.0643

Row | Sequence | PBM E-score
76 | CACGCTGG | -0.173
77 | CAAGTACA | -0.144
78 | CATCAGGG | -0.224
79 | AGCAACCG | 0.162
80 | CCGATCCA | 0.238
81 | AATCGGCC | 0.191
82 | GGTGATTA | 0.121
83 | AACGGGCT | -0.0614
84 | ACCCTCCA | -0.203
85 | CACCGAAA | 0.201
86 | ACCAATTG | -0.292
87 | ATCTGCGG | 0.123
88 | CTCACAGC | -0.293
89 | AGAACCGG | 0.295
90 | ATCCCCAG | -0.332
91 | ACGCCTCC | -0.0077
92 | AAATCCTA | -0.0873
93 | ACTGAAGA | -0.0104
94 | AGGGGGAG | -0.198
95 | AGCCGTTG | 0.113
96 | CCCGGCGC | 0.251
97 | CCGTTGCC | 0.127
98 | ATCTGAAT | -0.0562
99 | AGAGATTA | -0.139
100 | ACCCGACG | 0.425

Row | Sequence | PBM E-score
101 | GCGCCTAA | -0.116
102 | ACTAACCA | 0.0413
103 | CATAGGAG | -0.154
104 | ATACCTTA | 0.0329
105 | TAAGGCAA | -0.017
106 | AGTGTTAG | -0.0902
107 | TCAGGCCA | -0.0603
108 | CCACGGCA | 0.219
109 | AGTCATTG | -0.205
110 | ACAGGGAG | -0.197
111 | GGCTGTCA | -0.169
112 | CCGAACTC | 0.374
113 | AGTGCAGG | -0.142
114 | AGATACCA | -0.0484
115 | CCATGTAA | 0.0562
116 | AGCGGAAA | 0.333
117 | ACTCTCAT | -0.15
118 | ACAATTTA | -0.142
119 | AACGCACG | -0.0119
120 | TCACACAA | -0.195
121 | GAATCTGA | -0.0575
122 | CTCCAGGC | -0.205
123 | CTTGCGGC | 0.0761
124 | AATCCCGG | 0.318
125 | GGCAGCAA | 0.00856

Row | Sequence | PBM E-score
126 | GCGAACGA | -0.125
127 | CTTCTGCA | -0.0971
128 | ATGCGACA | -0.121
129 | ACACCCTC | 0.00446
130 | GGCCGGCC | 0.199
131 | CATGGTGG | -0.107
132 | GCAGACCC | -0.0129
133 | CGTATTCC | 0.153
134 | AATCTTAC | 0.00018
135 | AGTCCATA | -0.142
136 | CGGCAGCC | 0.286
137 | GATCCGAC | 0.434
138 | ACTCGGCT | 0.414
139 | AGTCTTAC | -0.245
140 | ACGTCCGA | 0.201
141 | AGCTTGCA | -0.254
142 | AAGTTTGA | 0.0739
143 | CACGAGCC | 0
144 | AATCGTGT | 0.0447
145 | AAGATGTC | -0.197
146 | AAGCACAT | 0.00432
147 | CTTTCCAA | 0.125
148 | AACTCGGA | 0.426
149 | AGACGTCA | -0.282
150 | CAGTATTA | -0.0582

Row | Sequence | PBM E-score
151 | ACGAGAAT | -0.0391
152 | CGCACTAG | -0.0812
153 | CTATCCCC | -0.0734
154 | AATTGACC | -0.0708
155 | CAGGACGA | -0.172
156 | AGGTTCCC | -0.0987
157 | CGCTCTAG | -0.153
158 | AAACTGCA | -0.0605
159 | AAGTAGGG | -0.195
160 | CAACCTAC | 0.0693
161 | AGGGCCGG | 0.191
162 | AACTGGGC | -0.0105
163 | AACTTTTC | -0.0488
164 | GGGACGCA | -0.161
165 | AACATCCC | 0.232
166 | AGTAACCA | -0.169
167 | AACCACTC | -0.17
168 | AAGCATCT | -0.0907
169 | CGAGCGAC | -0.0207
170 | CCCTATCA | -0.211
171 | ACAATTGT | 0.0503
172 | ACCTATGA | -0.164
